From PubChem BioAssay AID686971 (National Center for Advancing Translational Sciences (NCATS), 2013)
About 7,500 (2.1%) of roughly 360,000 compounds were called active. The shares of active, inactive and inconclusive entries below differ from those in the screen. Calls follow the shape of the dose curve; as a rule, active = well fitted cell-killing curve with a large enough effect; inconclusive = small, poorly fitted or top-dose-only effect, or effect the other way, or another doubt; inactive = no such curve, though single readings can be large or run the other way. Potencies of inconclusive entries are left out as doubtful fits.

assay: qHTS for induction of synthetic lethality in tumor cells producing 2HG: qHTS for the HT-1080-IDH1KD cell line; conditions: HT-1080 IDH1 knockdown viability, ATP luminescence, 48 h; series mostly up to 46.1 µM
Procedure, shortened: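 Cytotoxicity counter-line: IDH1KD HT-1080, 48 h, CellTiter-Glo. Curves classed by r2, magnitude and activity.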
Potency is read from the fitted curve at half-maximal effect; tags tell the direction and shape of the fitted curve.

SMILES | Potency
C=CCc1c(C)nc(-c2ccccc2)nc1Nc1ccccc1O | active: 16.4 µM
COC(=O)c1c(/N=C/N(C)C)sc2c1CCN(c1ncc(C(F)(F)F)cc1Cl)C2 | inconclusive [cytotoxic, single point]
Cc1ccc(Nc2nc(CSc3nnc(-c4ccncc4)n3-c3ccccc3C)cs2)cc1 | inconclusive [cytotoxic, single point]
CCOC(=O)c1ccccc1NC(=O)c1nc2nccc(C)n2n1 | inactive
CCCCC(=O)O[C@H]1CC[C@H]2[C@@H]3CCc4cc(O)ccc4[C@H]3CC[C@]12C | inconclusive [cytotoxic, single point]
COc1ccc(-n2cc(CNC3CCOCC3)c(-c3cccc(F)c3)n2)cc1 | active: 18.4 µM
CCOC(=O)C1CCN(C(=O)C2CCCN2S(=O)(=O)c2ccc(Cl)cc2)CC1 (centres undefined) | inactive
CCCc1nc2c3ccccc3ccn2c1Cc1cccc(F)c1 | inconclusive [cytotoxic, single point]
CC(=O)Nc1ccc(S(=O)(=O)Nc2ccccc2C(=O)N2CCCC2)cc1 | inactive
COc1cccc(/C=N/NC(=O)C[n+]2ccccc2)c1OC | inactive
N#C/C(=C\c1ccccc1Cl)C(=O)Nc1ccccn1 | inactive
O=C1NN(c2ccccc2)C(=O)C1=Cc1ccccc1O | inconclusive [cytotoxic, partial curve]
Cc1cccc(Nc2nc(-c3sc(C)nc3C)cs2)c1 | inconclusive [cytotoxic, single point]
CC(C)NC(=O)N(C)C[C@@H]1Oc2ccc(NC(=O)Nc3ccc(C(F)(F)F)cc3)cc2CC(=O)N([C@H](C)CO)C[C@@H]1C | inconclusive [cytotoxic, single point]
COC(=O)c1sc(N/N=C/c2ccc(C(C)C)cc2)nc1C | inactive
O=C(NC(c1ccc(-c2ccccc2)cc1)c1cnccn1)C1CCN(CCCOc2ccccc2)CC1 (centres undefined) | active: 9.2 µM
N#Cc1cnc2cc(-c3ccccc3)nn2c1N | inconclusive [cytotoxic, single point]
CCc1nnc(NC(=O)c2cc3c(s2)CCCCC3)s1 | inactive
Nc1ccccc1-n1cccc1 | inactive
Cc1nnc(SCC(=O)Nc2ccc(N3CCOCC3)cc2)o1 | inactive

SMILES | Potency
COc1ccc(-c2nc3ccc(C)cn3c2NCc2ccccc2)cc1SC1CCCCC1 | inconclusive [cytotoxic, partial curve]
CC1=C(C(=O)N(C(C)C)C(C)C)CC(CC(=O)NCc2cccc3ccccc23)C(=O)N1Cc1ccc(C(C)(C)C)cc1 (centres undefined) | inconclusive [cytotoxic, single point]
CC(NC(=O)c1ccccc1)c1nnc(SCC(=O)NC2CCCC2)n1C (centres undefined) | inactive
CC(O)/C=C/c1ccc2ccccc2n1 (centres undefined) | active: 11.2 µM
COc1ccc(C=NNc2nc3ccccc3s2)cc1 | inactive
CC(C)(C)c1cc(/C=C2\NC(=O)NC2=O)cc(C(C)(C)C)c1O | inconclusive [cytotoxic, partial curve]
O=C(O)c1cc(O)c2c(c1)C(=O)c1cccc(O)c1C2=O | inconclusive [cytotoxic, single point]
O=C1C=CC(=O)N1c1ccc(OC(F)F)cc1 | active: 16.4 µM
CCN(CC(=O)NCc1ccc(Cl)cc1)C(=O)COc1cccc(Cl)c1 | inactive
Cc1cccc(C)c1OCc1cc(C(=O)N(C)Cc2cc(C3CC3)n[nH]2)no1 | inactive
COc1ccccc1Cc1c(C2CCCCC2)nc2ccc(Br)cn12 | inconclusive [cytotoxic, single point]
O=C(O)CC1=C(Nc2ccccc2)C(=O)N(c2ccccc2)C1c1ccc(Br)cc1 (centres undefined) | inactive
CCOC(=O)C1(Cc2cccc(OC)c2)CCN(CC(O)CO)CC1 (centres undefined) | inactive
COc1ccccc1C1c2[nH]c3ccccc3c2C[C@H]2C(=O)N(C3CCN(Cc4ccccc4)CC3)CC(=O)N12 (some centres undefined) | inconclusive [cytotoxic, single point]
Cc1ccccc1-n1nnc2c(=O)oc3ccccc3c21 | inconclusive [cytotoxic, single point]
COc1ccc(C2OC(=O)CC2C(=O)NC2CCCCCC2)cc1OC (centres undefined) | inconclusive [cytotoxic, single point]
COc1ccccc1C1CC(c2ccccc2)=NN1C(=S)Nc1ccccc1 (centres undefined) | inactive
CCCNC(=O)c1nnsc1S(=O)c1ccc(Cl)cc1 (centres undefined) | active: 16.4 µM
CCn1nnc2c(N3CCCC3)ncnc21 | inactive
